From the supplement of paper PMC3334620
Over roughly 33,000 sequences, “E-score (-0.5 to 0.5)” has its median near -0.035; the highest 2% begin near 0.34. This is one part of the list.

molecular target: T1, Mot3 (UniProt P54785); assay: PBM E-score (8-mer binding enrichment) (E-score (-0.5 to 0.5)); higher = stronger / more preferred TF binding; most listed sequences are background and not binding sites; settings: protein concentration: 200 nM; construct: GST-full length
T1 sequence: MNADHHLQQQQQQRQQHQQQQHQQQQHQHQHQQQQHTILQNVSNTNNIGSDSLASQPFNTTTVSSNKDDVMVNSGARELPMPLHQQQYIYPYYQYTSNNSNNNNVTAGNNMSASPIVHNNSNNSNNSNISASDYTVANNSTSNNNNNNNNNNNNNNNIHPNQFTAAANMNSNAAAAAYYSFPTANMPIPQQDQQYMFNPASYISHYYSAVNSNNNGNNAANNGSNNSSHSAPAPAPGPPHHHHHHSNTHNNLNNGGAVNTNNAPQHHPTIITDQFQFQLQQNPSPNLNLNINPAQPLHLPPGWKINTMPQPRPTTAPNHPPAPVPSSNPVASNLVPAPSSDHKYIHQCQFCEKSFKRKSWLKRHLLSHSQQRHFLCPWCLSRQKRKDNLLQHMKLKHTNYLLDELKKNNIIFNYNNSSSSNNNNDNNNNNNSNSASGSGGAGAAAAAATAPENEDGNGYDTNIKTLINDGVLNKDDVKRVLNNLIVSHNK
How it was run: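 Using PURExpress in vitro transcription/translation, GST-tagged yeast transcription factors were made in full-length or DNA-binding-domain form. These were applied at about 100-200 nM to double-stranded universal all-10-mer Agilent arrays, and bound protein was detected with fluorescent anti-GST. Scans were normalised with masliner before the Universal PBM Analysis Suite assigned E-scores to ungapped eight-base words pooled with their reverse complements.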

Sequence | PBM E-score
GATATTAC | 0.284
CGCGTTTC | 0.0154
AGGTGTAG | 0.0602
CATGCAGA | 0.125
AATCGTAT | 0.153
AGCGGCAC | -0.277
CTAGGCTA | -0.18
GGCGTTGA | -0.0951
CAACACAG | 0.229
GTTACTGA | 0.0507
ACCTTGCC | 0.322
ACGCCAAC | 0.00615
GGCCGAGA | -0.209
TGCTGGAA | 0.0344
AACGCGTA | 0.289
AGAACACG | 0.237
GCGCTAAA | -0.018
GTTCGTTA | 0.0675
AAGTCGGT | -0.266
GGCACTAC | 0.219
CGATTTAG | 0.0701
ACTATTCC | -0.106
ATGTGCGG | -0.0249
GGTACTGA | -0.191
GAGTCGCC | -0.319

Sequence | PBM E-score
CGGTTGAG | -0.0756
GAGTACAA | 0.106
CCCGAGCA | -0.253
CGGACAAC | -0.0115
ATAGTGAA | 0.0719
GACCCGGA | -0.303
CCAAGTGC | -0.181
ACACGCCC | 0.29
GGAATCAA | 0.0785
GACATGGC | 0.0808
CATACCCG | -0.0557
ACCTACAC | 0.258
GACCGGCA | -0.116
GTGATGAA | -0.0476
GTAATGCA | 0.237
TCCCAAGA | -0.256
ACAAACAT | 0.265
AAAAGCTG | -0.143
AATAATGT | 0.163
CACATGAC | 0.177
CGAACGGA | -0.166
ATGTCTTA | 0.189
CCAGCTAA | -0.0514
ACACGGGT | 0.348
ATTCAGTA | 0.089

Sequence | PBM E-score
CCAGAGTC | -0.224
GTAACGCA | 0.188
AAGGCATG | 0.303
AGGCGTAA | 0.1
CGCATACC | -0.0695
ACTAGCAT | 0.0119
CAGACGGA | -0.223
ACATATTC | 0.203
AAACCTGT | 0.0357
ATCCTCAT | -0.149
GGTCCGCA | -0.143
AGGCAGTC | -0.0291
CTAATAAG | 0.0833
ACCTGCAT | 0.207
CGACACGA | 0.239
AACGAAGC | -0.188
CTCAATTA | 0.111
CCTTCTCC | 0.0145
CCAACGTC | -0.172
CTAGTTAC | 0.0149
AACTTGCG | 0.0893
ATCAGACA | 0.0849
AGGTTGAC | -0.0563
GTACATTA | 0.267
AAGGATTA | 0.249

Sequence | PBM E-score
GGCCCCAC | -0.308
CTGACTTC | -0.251
CACGCTGG | -0.0203
CAAGTACA | 0.214
AAAGTTTC | -0.0741
GAGTCGCA | -0.351
GGCAATGA | 0.246
CAGGTGAG | -0.291
AATCGGCC | -0.319
CCGATCCA | -0.00525
AACGGGCT | -0.223
GGTGATTA | -0.174
ACCCTCCA | -0.157
CATCAGGG | -0.0517
AGCAACCG | -0.217
GTCCCGTA | -0.0776
ATCCACGG | -0.0193
CCGTATCC | -0.173
CATGTGCC | 0.31
AATTTAAC | 0.229
CACACTAC | 0.182
CAGGGGCA | 0.0463
CTCCTTCA | 0.0358
AGGGATAT | -0.149
ATAAACAA | 0.196

Sequence | PBM E-score
CTCATGAA | -0.0903
AGTTTGTG | -0.0641
GCGTAACA | 0.196
AATTTGCA | -0.0423
GTCAAACA | 0.155
CCCATGGC | -0.281
GTAAGGAA | 0.366
CGAGCGAG | 0.126
ATTATTCG | 0.174
CGTAATAC | 0.3
CCGCTGGA | -0.189
ACCCCGTG | -0.103
TTAAAAAA | 0.186
GTAGCATA | -0.0576
ACAATTTA | 0.134
TCACACAA | 0.0924
GAATCTGA | -0.0173
AACGCACG | 0.219
CTTGCGGC | -0.158
CTCCAGGC | 0.157
CTTCTGCA | -0.0791
GCGAACGA | -0.109
ATGCGACA | 0.0177
ACACCCTC | -0.114
GGCCGGCC | -0.38

Sequence | PBM E-score
AATCCCGG | -0.29
GGCAGCAA | 0.00515
GCAGACCC | -0.298
CGTATTCC | 0.198
CATGGTGG | -0.0263
GATCCGAC | -0.167
ACTCGGCT | -0.34
CGGCAGCC | -0.206
AGTCCATA | -0.281
AATCTTAC | 0.181
AATCGTGT | 0.286
AAGATGTC | -0.0594
ACGTCCGA | -0.12
AGTCTTAC | -0.0608
AGCTTGCA | -0.0465
AAGTTTGA | 0.104
CACGAGCC | -0.132
AACTCGGA | -0.0873
AGACGTCA | -0.0837
CTTTCCAA | -0.0154
AAGCACAT | 0.0905
AGAACCGG | -0.217
ACGCCTCC | -0.0931
ATCCCCAG | -0.121
AAATCCTA | 0.0766

Sequence | PBM E-score
CACCGAAA | 0.0446
CTCACAGC | -0.0824
ATCTGCGG | -0.201
ACCAATTG | -0.199
CCCGGCGC | -0.337
CCGTTGCC | 0.167
ATCTGAAT | -0.0896
ACTGAAGA | -0.141
AGGGGGAG | -0.211
AGCCGTTG | -0.158
AGAGATTA | -0.0181
ACTAACCA | 0.148
GCGCCTAA | 0.205
CATAGGAG | 0.0725
ACCCGACG | -0.117
ATACCTTA | -0.0699
TAAGGCAA | 0.472
CCACGGCA | -0.14
AGTCATTG | -0.176
AGTGTTAG | 0.0278
TCAGGCCA | -0.0359
CCGAACTC | -0.131
AGTGCAGG | 0.0699
ACAGGGAG | 0.0107
GGCTGTCA | -0.239

Sequence | PBM E-score
CCATGTAA | 0.411
ACTCTCAT | -0.154
AGCGGAAA | -0.136
AGATACCA | -0.133
GTATAGAC | 0.0959
AGCAGGTA | 0.328
CCTATGTA | 0.348
GCAGATGA | 0.0745
CAAACCGG | -0.0443
CGCAAACG | -0.0554
ACCAAGGC | 0.239
CGGCGCTA | -0.158
AGATGTAC | 0.0591
ATTATCAG | -0.0609
ATACAGGC | 0.333
CCTGCAAC | 0.144
ATTAAATA | 0.132
CGATGAGA | -0.07
AGGGTAAC | 0.00226
GGGCTCAC | -0.262
ATCACACC | -0.0466
CATGTGGA | -0.0255
CTCTACAC | 0.223
AGACGAAC | 0.0428
ACCAGGTC | -0.191

Sequence | PBM E-score
ACGGTAAC | 0.195
AAGGTCCC | -0.184
AGTGTCCG | -0.169
ATAGTCAC | 0.231
AGGATATC | -0.168
ATCCGGGA | -0.231
GCTCTGAA | -0.0758
CGATTCAA | -0.0781
CAGACCGA | -0.201
CTTGATCA | -0.143
ACGAATCT | 0.0785
GCCACAAA | -0.0162
TATGCAGA | -0.151
ACATAAAG | 0.263
AGCAGCCC | -0.115
GGGCTCTA | -0.186
CATTAAGA | -0.00127
ACTTGCTA | 0.016
GTAAGTGA | 0.0737
